Reference: the supplement of paper PMC11417369
The list shows a part of the results.

Tested on: PfSIP2 AP2 domain 1 (GST-tagged)
Assay: gcPBM binding intensity (ln(normalized median fluorescence intensity)); higher = stronger DNA binding
Outline: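 For binding intensity, the highest Masliner-normalised natural-log median intensity across replicate spots of either probe orientation was taken. Protein bound to the array was stained with Alexa488 anti-GST antibody and scanned at 488 nm. The protein, GST-tagged P. falciparum DNA-binding domains from E. coli at about 25 μg on average, had been applied for 1 h to an Agilent 4 × 180k array of primer-extended double-stranded 36-bp intergenic genomic probes and negative controls.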

| Sequence | gcPBM binding intensity (ln) |
| --- | --- |
| AAAGTAAAAACACATACATGCATATACACATATAAC [TGCATGCA_site341] | 7.18 |
| AATAGGAAAACCTATACACACTTTAAAAAAAATATA [CACACA_site4977] | 6.73 |
| ATAAATATGTATTGCTGTACATATATATAAATTATC [XGTACX_site8411] | 7.13 |
| TAAAAAATTTTCGCGTGTACGCAAGAAAAAAAAAAT [XGTACX_site3058] | 7.59 |
| TTTTTGCCATATTACACACACACATGGAAACCCCCT [CACACA_site4994] | 8.03 |
| TATATATTTAGTTAGTGTACAAGTTATTTAGTAGTT [XGTACX_site5133] | 7.17 |
| TCTTTTAACAAATAATAAGCTAATTTATATTATTAT [GTGCAC_negctrl_site655] | 6.78 |
| AAAAAAATAATGTATATATAAATTTATTTACATATG [GTGCAC_negctrl_site107] | 6.91 |
| TAAAAAATAAGATATACACACATATATTTATTTATA [CACACA_site7158] | 6.72 |
| CAAATAAATTAAAGGTGTACTTTTATAGTTACGACA [XGTACX_site3926] | 6.71 |
| CATATTTTCTTGTGTACACATTTATTTTATACTATA [CACACA_site6032] | 7.49 |
| CACCCACCCAGACACACACACACACCCCCACCCATA [CACACA_site367] | 7.6 |
| AATTATTTATTGAGAGTGCAACAAATTATTTCAAAT [GTGCAC_site9461] | 8.54 |
| ACATTTTAAATACGATGTACTTGAGTTTTTTTTAAA [XGTACX_site5833] | 6.95 |
| TTTTTTTGCATGAGCAATAAAAAAGGCTTGTTCAAA [CACACA_negctrl_site1615] | 6.57 |
| GAAATAAAAGATGGTTGTACACCGTTTTCTCATATA [XGTACX_site5368] | 6.92 |
| TACATATATGATAAAAGTACATATAAATATACATAA [XGTACX_site3804] | 6.93 |
| TATATGAATAAACATTGTACGTAAATATTAACTATC [XGTACX_site543] | 7.15 |
| TTATATATTAAGAAATGTACGAAAAAAAAAATTATA [XGTACX_site3893] | 6.94 |
| AAGATGATAAAATATGTACACACAGTTTATACATTT [CACACA_site9341] | 6.97 |
| AAAAAAAATTATATATGTACTTATTAATCCTTTTAT [XGTACX_site1387] | 6.81 |
| TATAATAATAATAATAATAATAATAATAATAATAAT [CACACA_negctrl_site905] | 7.54 |

| Sequence | gcPBM binding intensity (ln) |
| --- | --- |
| CGCATAAAGACAAGAACACACATATAGATTGTAGTA [CACACA_site3693] | 6.75 |
| CATAATAAGTATAACGTTAGTTACAAACAGCTTGTT [CACACA_negctrl_site937] | 6.74 |
| AAAATAATGTATATAGTGCAAATGAAAACGAAAAAA [GTGCAC_site9455] | 8.32 |
| TTTTTAAATAAATGTTTTTATTATATACATATCAAT [TGCATGCA_negctrl_site423] | 6.79 |
| TTTGTTTTTTTGAGAGTGCAATATATATAAAAAGGG [GTGCAC_site9691] | 9.1 |
| TTGGTGATATTTTTCTCACACATTTACCAGAGATGT [CACACA_site4684] | 6.85 |
| GTAGATATTTATTGAGTGCATGTTATAAAGGGAAAA [GTGCAC_site9481] | 9.62 |
| TTTTTATTTTTTTACAGTACATAAAATAAATAAATA [XGTACX_site6596] | 7.21 |
| TTTTTTTTATGGAAACGTACATACATACATTAAAGA [XGTACX_site7401] | 7.46 |
| TATTTATATATTTATGCATGTTATAGGCAAAAATGT [TGCATGCA_site397] | 7.13 |
| TATATTGATGATGATAGTACGTATGAATACAAAAAA [XGTACX_site4] | 6.83 |
| AAGAGTAAAATATGGTTGCACTAAAAATATATATTT [GTGCAC_site9484] | 7.78 |
| TTATAGAGCTTATTCACACATACATATGTATTTATA [CACACA_site5775] | 7.04 |
| ATAATAAAAATATACTGTACATTTGTAAATTCTTTT [XGTACX_site4655] | 6.81 |
| TAAAACATATAAAGGTGTACGCCTTTTTGTATCAAT [XGTACX_site6064] | 7.13 |
| TATATTTGTTGACACACACACAAAAAAAAAAAAAAA [CACACA_site7211] | 7.13 |
| GTCTACTACACTAAATGTACAAGAAAAAAGAAAAAA [XGTACX_site4660] | 7.49 |
| TATAAAATTCTGACTTGTACATGTGAAAAATAATTA [XGTACX_site1396] | 6.9 |
| TATATATATATATAATGTACACATTTTTATAACTAT [XGTACX_site5714] | 9.18 |
| AAAGATGGAAAAAAAAATTTGTGTGTTGAAAGATAT [GTGCAC_negctrl_site19] | 7.14 |
| AAAATACAATTTCTAGCACACAAAATATTATTATAA [CACACA_site9056] | 6.82 |
| GCGTTGTTTTTAAAAAGTACATTTTTATATAAGTTA [XGTACX_site8780] | 7.29 |
